# Data published in the BET-seq Pho4 binding data (Le et al. 2018).
# Some of the results follow. Values were computed here from the reads of four pooled replicates and scatter widely.
# Biological target: T1, Pho4 (S. cerevisiae) (UniProt P07270)
# T1 sequence: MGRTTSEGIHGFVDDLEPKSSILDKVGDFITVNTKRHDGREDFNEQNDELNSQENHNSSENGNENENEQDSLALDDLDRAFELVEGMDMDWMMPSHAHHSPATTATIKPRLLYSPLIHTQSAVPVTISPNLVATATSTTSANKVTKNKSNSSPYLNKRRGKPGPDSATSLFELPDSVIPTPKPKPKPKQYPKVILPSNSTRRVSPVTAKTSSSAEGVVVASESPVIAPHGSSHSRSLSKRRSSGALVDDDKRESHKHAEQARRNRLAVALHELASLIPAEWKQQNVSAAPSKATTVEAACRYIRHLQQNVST
# Assay: relative binding free energy (BET-seq); higher = weaker binding
# Conditions: reference: library average
row,Sequence,relative binding free energy
1,GGGGCCACGTGGCGTT,-0.03 kcal/mol
2,ACAGGCACGTGCGTGG,-0.12 kcal/mol
3,GTGGGCACGTGGGGGA,-0.14 kcal/mol
4,GGTTTCACGTGGCTGG,0.38 kcal/mol
5,TTAGGCACGTGTGTAG,-0.1 kcal/mol
6,GGTGTCACGTGGATGA,0.1 kcal/mol
7,TTTCTCACGTGGTGGA,0.21 kcal/mol
8,GGTTACACGTGTGACT,0.18 kcal/mol
9,CTGTGCACGTGGAGTA,-0.03 kcal/mol
10,ATGTGCACGTGATACT,0 kcal/mol
11,AGTAACACGTGGTGGC,-0.1 kcal/mol
12,TCTTGCACGTGGAGGT,-0.02 kcal/mol
13,GGATCCACGTGCGTGT,0 kcal/mol
14,AGATACACGTGGAGTA,-0.02 kcal/mol
15,GGAAACACGTGAGGGA,0.29 kcal/mol
16,TTAGGCACGTGGTTTG,-0.06 kcal/mol
17,AGTTACACGTGTTTTC,0.1 kcal/mol
18,TTTTGCACGTGGTTAG,-0.12 kcal/mol
19,GGGTGCACGTGCATAG,-0.11 kcal/mol
20,GGTTTCACGTGGGCCT,0.36 kcal/mol
21,GTTTTCACGTGCTTTC,0.34 kcal/mol
22,CGTTGCACGTGGAGGG,-0.04 kcal/mol
23,AATGGCACGTGGGCGT,-0.26 kcal/mol

row,Sequence,relative binding free energy
1,TTTCACACGTGTTGAG,0 kcal/mol
2,AGCGTCACGTGGCGTG,-0.03 kcal/mol
3,GCGCTCACGTGTTGGT,0.11 kcal/mol
4,GTTTTCACGTGGGTAT,0.23 kcal/mol
5,TAATACACGTGGGAAG,-0.01 kcal/mol
6,GTGGTCACGTGGGTCA,-0.01 kcal/mol
7,GGCTTCACGTGTAGTA,0.18 kcal/mol
8,GTCATCACGTGTGGGA,0.26 kcal/mol
9,ATTAGCACGTGAGGTA,0.22 kcal/mol
10,AAATTCACGTGGCGTG,0.16 kcal/mol
11,AGATTCACGTGTGTCG,0.36 kcal/mol
12,CGGTTCACGTGTAGAG,0.16 kcal/mol
13,AAAGACACGTGAGGTT,0.13 kcal/mol
14,GCGGTCACGTGGGAGC,0.22 kcal/mol
15,ATGTGCACGTGATCGT,-0.01 kcal/mol
16,ATTAACACGTGGAGGT,0 kcal/mol
17,CGAGGCACGTGCTGTG,-0.17 kcal/mol
18,AATACCACGTGATGGT,0.16 kcal/mol
19,TAACGCACGTGTGTTG,0 kcal/mol
20,TATTGCACGTGACGGG,0.07 kcal/mol
21,TTGGGCACGTGGTCCA,-0.24 kcal/mol
22,TTGGACACGTGTAGTC,0.13 kcal/mol
23,GAATCCACGTGGGGAG,0.09 kcal/mol

row,Sequence,relative binding free energy
1,TGTCGCACGTGTACGG,-0.13 kcal/mol
2,GTGGTCACGTGCTGAA,0 kcal/mol
3,TTGCACACGTGGGTGG,-0.07 kcal/mol
4,TGAGGCACGTGAGTGT,0.19 kcal/mol
5,AGGTCCACGTGATTAG,0.2 kcal/mol
6,TGGTCCACGTGTGGAT,0.11 kcal/mol
7,TGCGGCACGTGTGTAC,-0.05 kcal/mol
8,TTGGGCACGTGTCGGC,-0.04 kcal/mol
9,GAGGTCACGTGTAAAT,0.27 kcal/mol
10,AATAGCACGTGTATGA,-0.06 kcal/mol
11,TTGCTCACGTGGAGAG,0.27 kcal/mol
12,GGTTTCACGTGTGGCT,0.34 kcal/mol
13,AAGAGCACGTGATCGG,0.12 kcal/mol
14,ATGGTCACGTGTAGCT,0.2 kcal/mol
15,GTATTCACGTGGAGAA,0.29 kcal/mol
16,AAAGGCACGTGAGTTT,0.13 kcal/mol
17,GTAATCACGTGAGTAG,0.47 kcal/mol
18,TTGTTCACGTGTGGTT,0.33 kcal/mol
19,TCATGCACGTGAGGGA,0.16 kcal/mol
20,TTAGGCACGTGCGGGT,-0.19 kcal/mol
21,GAGTGCACGTGTGCAG,0.26 kcal/mol
22,GTGAACACGTGTTATG,0.03 kcal/mol
23,AGGGGCACGTGTAGGC,-0.23 kcal/mol

row,Sequence,relative binding free energy
1,GCATGCACGTGGTGTG,-0.06 kcal/mol
2,CTTGTCACGTGTATTG,0.08 kcal/mol
3,TTGTCCACGTGAGGGC,0.24 kcal/mol
4,CGCGGCACGTGTATGG,-0.13 kcal/mol
5,TTTGCCACGTGGTATA,-0.22 kcal/mol
6,GATATCACGTGTTTGT,0.09 kcal/mol
7,TAGTACACGTGGGAGT,-0.05 kcal/mol
8,TTGCGCACGTGGAGTA,-0.26 kcal/mol
9,TTGGTCACGTGTCGCG,0.04 kcal/mol
10,CCTGACACGTGGGGTG,-0.17 kcal/mol
11,ATTGTCACGTGCGTAT,-0.02 kcal/mol
12,ACATGCACGTGGTGGG,-0.12 kcal/mol
13,GAGCACACGTGTGGGG,0.1 kcal/mol
14,GTAGGCACGTGTTTAG,-0.16 kcal/mol
15,GAATGCACGTGAGTGA,0.18 kcal/mol
16,GGATTCACGTGTAGAT,0.51 kcal/mol
17,GGGATCACGTGGCTGG,0.1 kcal/mol
18,ACGTTCACGTGTGCGT,0.18 kcal/mol
19,TGGCTCACGTGTATGA,0.12 kcal/mol
20,TGAGGCACGTGTGTTC,-0.28 kcal/mol
21,GTGGTCACGTGCATTT,0.24 kcal/mol
22,AGGCGCACGTGGGACG,-0.09 kcal/mol
23,CGTTTCACGTGCTTGT,0.16 kcal/mol

row,Sequence,relative binding free energy
1,CTGATCACGTGGCTGG,0.06 kcal/mol
2,GGGAGCACGTGGGACG,-0.23 kcal/mol
3,TTTGTCACGTGCGTAT,0.04 kcal/mol
4,CTGGGCACGTGGTGTC,-0.1 kcal/mol
5,GGTGACACGTGTGATT,0.04 kcal/mol
6,GGGGGCACGTGTACGT,-0.09 kcal/mol
7,ACTTTCACGTGTTTGG,0.13 kcal/mol
8,GGAGTCACGTGTTGCA,0.06 kcal/mol
9,TGGGTCACGTGCTCTG,-0.12 kcal/mol
10,GAAGGCACGTGGATTT,-0.06 kcal/mol
11,GTTTGCACGTGACATG,0.13 kcal/mol
12,CGTGGCACGTGGTTTG,-0.13 kcal/mol
13,TAGAGCACGTGGAAGT,-0.15 kcal/mol
14,GTTTGCACGTGGACGT,0.11 kcal/mol
15,TGTGTCACGTGGACGG,0.09 kcal/mol
16,AGTGGCACGTGCGTCT,-0.2 kcal/mol
17,GACAGCACGTGGGGGT,-0.15 kcal/mol
18,TGTAGCACGTGATGGG,0.08 kcal/mol
19,AGAGGCACGTGATGGG,0.1 kcal/mol
20,TAGTACACGTGGTTCG,0.03 kcal/mol
21,GCTTACACGTGTGGTG,0.08 kcal/mol
22,GTGGTCACGTGTGTTA,0.13 kcal/mol
23,ACTTGCACGTGGGTAG,-0.21 kcal/mol
